The list shows a part of the results.
T1: UNK ZnF1-6 (called full-length) (human, UniProt Q9C0B0 30-357)
T1 sequence: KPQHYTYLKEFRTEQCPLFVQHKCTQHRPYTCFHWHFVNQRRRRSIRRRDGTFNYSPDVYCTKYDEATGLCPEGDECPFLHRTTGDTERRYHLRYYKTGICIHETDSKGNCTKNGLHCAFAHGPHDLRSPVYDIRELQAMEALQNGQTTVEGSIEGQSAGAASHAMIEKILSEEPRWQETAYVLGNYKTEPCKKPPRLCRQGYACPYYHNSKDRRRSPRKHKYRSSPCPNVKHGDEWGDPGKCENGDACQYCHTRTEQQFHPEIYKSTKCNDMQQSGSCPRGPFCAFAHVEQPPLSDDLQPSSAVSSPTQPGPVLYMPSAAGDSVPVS

B1: chr1:108700024:108700125:+|3pUTR|ENSG00000134186|msi1|total|mutant (ssRNA)
RNA: GGGAGUUCUACAGUCCGACGAUCCACAUUGAAUCCUAUAAAUGAUUAAAUCUGCUUUUUUCCCCCACGUUGAGAUUGUGCAGCCGUUCGCACUCCUCAAGCUCUCCCUGCCGGCUGCAUUUUCAUUUCCUCUUUCGUGCCGGGCAACAGAGGAUUGAGCAUCA
B2: ENSG00000198589:be:win_7301|CDS|ENSG00000198589|bound_else_gene|NA|bound_elsewhere_windowed (ssRNA)
RNA: GGGAGUUCUACAGUCCGACGAUCAUUACUUGACCUAUGAAGGAGCUGUCAAUCUGAAUUCAAUAACUGAUCCUGUGUUGAGAGAGGCUGUUGAAGCUCAAAUCCGAAGUUUUGGACAGACUCCUUCUCAACUACUCAUAGAGCCAACAGAGGAUUGAGCAUCA
B3: chr10:88913158:88913259:+|CDS|ENSG00000138134|unk|FALSE|unique (ssRNA)
RNA: GGGAGUUCUACAGUCCGACGAUCGCAUCAGAGAUUGAUAGAGGCAGAAAGGAAGCGGAUUGCUCAGAUGCGCCAGCAGCAGCUAGAAUCGGAGCAGUUUCUGUUUUUCGAAGAUCAACUCAAGAAGCAAGAGUUAGCCCGAGGCAACAGAGGAUUGAGCAUCA
B4: ENSG00000184117:stop:overlap|stop_codon|ENSG00000184117|stop_codon|NA|stop_codon (ssRNA)
RNA: GGGAGUUCUACAGUCCGACGAUCUGGGCAACUGGAACACGUGGUAUGGGGAGCAGGACCAGGCAGGUCAUUCCUGGUUUUGGUAGAUUUCUAUCCAUACAGUACUUUUGCCAUUUCCUUUGGGAAAAAGACCUUUAAACCAUACAACAGAGGAUUGAGCAUCA
B5: chr2:112781603:112781826:-|CDS|ENSG00000115008|control|control|control (ssRNA)
RNA: GGGAGUUCUACAGUCCGACGAUCGAGUAUCUCUGAAACCUCUAAAACAUCCAAGCUUACCUUCAAGGAGAGCAUGGUGGUAGUAGCAACCAACGGGAAGGUUCUGAAGAAGAGACGGUUGAGUUUAAGCCAAUCCAUCACUGACAACAGAGGAUUGAGCAUCA
B6: chr1:153933785:153933886:-|CDS|ENSG00000198837|msi1|FALSE|unique (ssRNA)
RNA: GGGAGUUCUACAGUCCGACGAUCGGGAAGUUGGUGCAGAGGCUGGGGUCCAUCUUCCCUCAUUCUUUUCUGUGCUGCAGUGAUAGAGGCCUUGGGGGUCCUGGAACCCCGGGGAUCACCUGUGCCCUGGCACGAUGGAAGUCUCAACAGAGGAUUGAGCAUCA
B7: chr17:4948375:4948459:-|5pUTR_CDS|ENSG00000108518|msi1_unk|FALSE|overlapping (ssRNA)
RNA: GGGAGUUCUACAGUCCGACGAUCAGCCGAGGCAGCUCGAGCCCAGUCCGCGGCCCCAGCAGCAGCGCCGAGAGCAGCCCCAGUAGCAGCGCCAUGGCCGGGUGGAACGCCUACAUCGACAACCUCAUGGCGGACGGGACCUGUCAACAGAGGAUUGAGCAUCA
B8: ENSG00000177108:stop:overlap|stop_codon|ENSG00000177108|stop_codon|NA|stop_codon (ssRNA)
RNA: GGGAGUUCUACAGUCCGACGAUCUGGGCCUGCUGGUCCCCAUGUUCAAUGUCGGAAGUGAGAGCUCCAAGCAGCAGGAUAAGUAGUAGACACUCCCGUCAUUUAUCUCUCUGUCUCUGUCUUGACUCCUCCUGAGCAUAAAACCAACAGAGGAUUGAGCAUCA
B9: chr6:89794666:89794767:-|CDS|ENSG00000112159|unk|FALSE|unique (ssRNA)
RNA: GGGAGUUCUACAGUCCGACGAUCCCAGUCUUUCAAAGACUUUUCCUAGAGAGUUCAGAUGCUAAUCCAGUACGCUAUGGACGUAGGAGGAUGAAGCUCCGGGACCUAAUGGAAGCAGCCUUCAAGUUUCUGCAGCAGGAGCAGCAACAGAGGAUUGAGCAUCA
B10: chr19:6534681:6534787:+|CDS|ENSG00000125657|unk|FALSE|unique (ssRNA)
RNA: GGGAGUUCUACAGUCCGACGAUCAGAGGACACGAAGGAGCUGGUGGUGGCCAAGGCUGGAGUCUACUAUGUCUUCUUUCAACUAGAGCUGCGGCGCGUGGUGGCCGGCGAGGGCUCAGGCUCCGUUUCACUUGCGCUGCACCUCAACAGAGGAUUGAGCAUCA
B11: chr19:33301014:33301115:-|3pUTR|ENSG00000245848|unk|total|mutant (ssRNA)
RNA: GGGAGUUCUACAGUCCGACGAUCUCCCUGCGAGGAGGGGAGAAUUCUUGGGGCUGAGCUGGGAGCCCGGCAACUCCCGUAUUCCGGAUAACCUUGUGCCUUGGAAAUGCAAACUCACCGCUCCAAUGCCUACUGAGCCGGGGGCAACAGAGGAUUGAGCAUCA
B12: ENSG00000171649:stop:overlap|stop_codon|ENSG00000171649|stop_codon|NA|stop_codon (ssRNA)
RNA: GGGAGUUCUACAGUCCGACGAUCCUCAGGUUGUGGCCAUGGAACAGAGGAUGAAGAGACACCUUCUGACCAGAAUGUUUCUGUAGGAGUGUCACAGUCAAAGGCAGGUUCAUCCACACAGAAGACUCAAUCCUGUGAGAUGUGCAACAGAGGAUUGAGCAUCA
B13: chr15:32969305:32969406:-|CDS|ENSG00000248905|unk|FALSE|unique (ssRNA)
RNA: GGGAGUUCUACAGUCCGACGAUCCGAGCAUGCAAUGAUAACAGCGAGACUAGAAGAAACCAUUGAAAAUCUGAAACACGAGCUAGAACACAGAUGGCGAGGGGGUUGUGAAGAGAGGAAAGAUGUGUGCAUUUCCACCGAUGACAACAGAGGAUUGAGCAUCA
B14: chrX:120258281:120258382:+|3pUTR|ENSG00000177485|msi1|FALSE|bound_elsewhere (ssRNA)
RNA: GGGAGUUCUACAGUCCGACGAUCUGUACAAUCUUCCCUGUCAUGACUUUAAGUUCUACUUUUCAUUAACCAUGGCCUGAUAUUAGUUCUUAGAGCUUCUUGUGGCAAAAAUAAAAUGAUUUAAUUCUGAUGUUUGAGUGCGUGCAACAGAGGAUUGAGCAUCA

Molecular target: T1, UNK ZnF1-6 (called full-length)
Experiment: nsRBNS (natural sequence RNA bind-n-seq); RBNS binding buffer (assumed for nsRBNS): 25 mM Tris pH 7.5, 150 mM KCl, 3 mM MgCl2, 0.01% Triton X-100, 500 ug/ml BSA, 20 U/ml SUPERase-In, 4 C; UNK is unkempt and MSI1 is Musashi-1; names of the RNAs are library labels; protein concentration not given here; high values mean tight binding

Binder	binding signal [enrichment R]
B1	0.792
B2	0.397
B3	0.534
B4	0.898
B5	0.516
B6	1.28
B7	1.01
B8	0.671
B9	0.568
B10	0.94
B11	0.729
B12	0.535
B13	0.957
B14	0.569
